Experimental data reported in article PMC4336329 (PLoS ONE, 2015).
About 14,000 (4.5%) of roughly 310,000 compounds showed an effect of 50% or more. The effect is printed as a negative number. Some of the results follow.

The compounds below were run against human ether-à-go-go-related gene (hERG) potassium channel (human, UniProt Q12809) (assay: primary screen, population patch clamp on CHO cells stably expressing hERG).
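Note: peak tail current of the secondary pulse compared with the same well before compound.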

human ether-à-go-go-related gene (hERG) potassium channel, sequence (Q12809 whole entry, looked up): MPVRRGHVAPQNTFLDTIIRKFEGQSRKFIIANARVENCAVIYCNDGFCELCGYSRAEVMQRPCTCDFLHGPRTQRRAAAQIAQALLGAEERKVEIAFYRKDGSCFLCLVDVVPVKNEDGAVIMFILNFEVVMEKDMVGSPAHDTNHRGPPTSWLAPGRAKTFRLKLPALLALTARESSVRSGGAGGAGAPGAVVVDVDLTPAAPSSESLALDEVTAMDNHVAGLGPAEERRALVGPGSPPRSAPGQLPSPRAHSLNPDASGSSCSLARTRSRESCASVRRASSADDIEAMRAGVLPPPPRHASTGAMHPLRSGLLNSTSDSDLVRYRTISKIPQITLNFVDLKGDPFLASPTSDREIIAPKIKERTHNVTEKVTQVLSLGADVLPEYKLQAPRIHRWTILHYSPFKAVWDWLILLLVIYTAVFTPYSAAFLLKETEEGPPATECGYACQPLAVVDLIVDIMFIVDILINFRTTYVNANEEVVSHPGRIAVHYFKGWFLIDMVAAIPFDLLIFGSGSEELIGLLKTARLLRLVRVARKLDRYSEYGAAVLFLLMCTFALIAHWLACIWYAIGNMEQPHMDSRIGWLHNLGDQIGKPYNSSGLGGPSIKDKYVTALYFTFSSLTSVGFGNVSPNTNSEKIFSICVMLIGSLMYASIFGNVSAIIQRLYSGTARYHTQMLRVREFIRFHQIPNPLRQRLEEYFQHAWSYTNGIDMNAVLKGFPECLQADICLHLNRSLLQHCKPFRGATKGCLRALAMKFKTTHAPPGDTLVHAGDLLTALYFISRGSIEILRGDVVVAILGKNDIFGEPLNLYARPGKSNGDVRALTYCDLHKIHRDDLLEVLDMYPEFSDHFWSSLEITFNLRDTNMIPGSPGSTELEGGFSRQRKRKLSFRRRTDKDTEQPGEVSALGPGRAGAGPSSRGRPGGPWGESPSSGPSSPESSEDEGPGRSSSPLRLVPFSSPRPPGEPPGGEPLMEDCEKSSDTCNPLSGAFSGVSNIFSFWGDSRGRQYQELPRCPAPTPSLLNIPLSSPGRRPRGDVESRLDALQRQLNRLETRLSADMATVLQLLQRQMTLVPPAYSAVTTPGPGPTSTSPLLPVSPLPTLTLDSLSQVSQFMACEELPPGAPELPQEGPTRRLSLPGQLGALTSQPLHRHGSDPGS

For `Cc1cccc(N2C(=O)NC(=O)/C(=C/c3ccc(N4CCOCC4)cc3)C2=O)c1`, which “hERG current change (%, negative = inhibition) at 10uM” value is on record?
Its value is 19.3%.

With `COc1ccccc1C(=O)NCCC(=O)N(C)Cc1cccnc1` as the compound, how does the “hERG current change (%, negative = inhibition) at 10uM” value read?
Its value is 1.24%.

Which “hERG current change (%, negative = inhibition) at 10uM” value does the source give for `O=C(O)CSCC(=O)NCc1csc2ccc(Cl)cc12` here?
Its value is 15.5%.

For `C=CCc1cccc(CNc2c(C)cc(C)cc2C)c1O`, which “hERG current change (%, negative = inhibition) at 10uM” value is on record?
The value was 20.6%.

`O=C(Nc1ccc(Cl)c(C(F)(F)F)c1)c1ccco1` was tested. Which “hERG current change (%, negative = inhibition) at 10uM” value did it give?
The value was -18.2%.

How did the “hERG current change (%, negative = inhibition) at 10uM” value turn out when `CNC1=C(N(C(C)=O)c2ccc(Br)cc2)C(=O)c2ccccc2C1=O` was run?
The value was 11.5%.

Which “hERG current change (%, negative = inhibition) at 10uM” value does the source give for `COc1ccc(OC)c(NC(=O)C2CC(=O)N(c3ccc(Br)cc3)C2)c1` (stereo not shown) here?
Its value is -33.6%.

With `O=C(C(Cc1ccccc1)n1cccc1)N1CCN(C2CCCCC2)CC1` (stereo not shown) as the compound, how does the “hERG current change (%, negative = inhibition) at 10uM” value read?
The value was -56.6%.

For `COc1ccccc1C(=O)NCCC(=O)N1CCN(C(C)=O)CC1`, which “hERG current change (%, negative = inhibition) at 10uM” value is on record?
The value was 21.3%.

How did the “hERG current change (%, negative = inhibition) at 10uM” value turn out when `COC(=O)C1=C(C)NC(C)=C(C(=O)OC)C1/C=C/c1ccccc1` was run?
The value was -3.12%.

Which “hERG current change (%, negative = inhibition) at 10uM” value does the source give for `CCn1ccc(C(=O)NC2=NCCS2)n1` here?
The value was -3.73%.

For `CC(C)Cc1nc2oc3c(NCc4cccnc4)ncnc3c2c2c1CCC2`, which “hERG current change (%, negative = inhibition) at 10uM” value is on record?
The value was -50.8%.

Which “hERG current change (%, negative = inhibition) at 10uM” value does the source give for `O=C(NCc1ccccc1Cl)C1CCC(=O)N(C2CC2)C1` (stereo not shown) here?
Its value is 20.4%.

`CCCCc1cc(=O)oc2c(CN3CCCC3)c(O)ccc12` was tested. Which “hERG current change (%, negative = inhibition) at 10uM” value did it give?
The value was -47.6%.

For `CN(C(=O)c1cccs1)C1(C)CCS(=O)(=O)C1` (stereo not shown), which “hERG current change (%, negative = inhibition) at 10uM” value is on record?
Its value is 35.4%.

How did the “hERG current change (%, negative = inhibition) at 10uM” value turn out when `O=c1[nH]c(CSc2ncc(C(F)(F)F)cc2Cl)nc2cc(C(F)(F)F)ccc12` was run?
The value was 5.42%.

How did the “hERG current change (%, negative = inhibition) at 10uM” value turn out when `CCOc1ccc(/C(C)=N\NC(=O)Cc2ccccc2)cc1` was run?
Its value is -1.3%.

Which “hERG current change (%, negative = inhibition) at 10uM” value does the source give for `Cc1cc(=O)oc(C)c1C(=O)OCC(=O)c1ccc2ccccc2c1` here?
The value was -2.33%.

With `CCCCC(=O)Nc1ccc2c(c1)nc(CN1CCN(C(=O)OCC)CC1)n2C` as the compound, how does the “hERG current change (%, negative = inhibition) at 10uM” value read?
The value was 4.4%.

How did the “hERG current change (%, negative = inhibition) at 10uM” value turn out when `COc1ccccc1N1CCN(C(=O)c2ccccc2NC(=O)C2CCCCC2C(=O)O)CC1` (stereo not shown) was run?
Its value is 15.6%.

Which “hERG current change (%, negative = inhibition) at 10uM” value does the source give for `COc1ccc(C)cc1N(C(=O)CNC(=O)c1ccco1)C(C(=O)NCC1CCCO1)c1ccccc1` (stereo not shown) here?
The value was 4.37%.

For `O=C(C1CCCO1)N1CCN(C(=S)Nc2ccccc2Cl)CC1` (stereo not shown), which “hERG current change (%, negative = inhibition) at 10uM” value is on record?
The value was 2.65%.

`CCCc1cc(=O)[nH]c2nnc(SCC(=O)Nc3ccc(NC(C)=O)cc3)n12` was tested. Which “hERG current change (%, negative = inhibition) at 10uM” value did it give?
Its value is 8.01%.

For `NC(=O)C1CCN(S(=O)(=O)c2ccccc2[N+](=O)[O-])CC1`, which “hERG current change (%, negative = inhibition) at 10uM” value is on record?
The value was 16.1%.

Which “hERG current change (%, negative = inhibition) at 10uM” value does the source give for `CCc1ccc(OCC(O)Cn2c(N3CCCCC3)nc3c2c(=O)[nH]c(=O)n3C)cc1` (stereo not shown) here?
Its value is -23.4%.

`CCCCNC(=O)COC(=O)c1cc(C)nc2ccccc12` was tested. Which “hERG current change (%, negative = inhibition) at 10uM” value did it give?
Its value is -2.15%.

Which “hERG current change (%, negative = inhibition) at 10uM” value does the source give for `COc1ccc(C2CC(c3ccc4ccccc4c3)=NN2C(=O)CSc2ncccn2)cc1` (stereo not shown) here?
The value was 8.85%.

With `CCCCCNC(=O)c1ccc2c(=O)n(CC3CCCO3)c(=O)[nH]c2c1` (stereo not shown) as the compound, how does the “hERG current change (%, negative = inhibition) at 10uM” value read?
The value was 8.23%.

With `CCOC(=O)N1CCC(N2C(=O)c3ccccc3C2Nc2ccc(Cl)cn2)CC1` (stereo not shown) as the compound, how does the “hERG current change (%, negative = inhibition) at 10uM” value read?
Its value is -22.5%.

Which “hERG current change (%, negative = inhibition) at 10uM” value does the source give for `CC(=O)NCCn1c(SCC(=O)NCCC2=CCCCC2)nc2ccccc2c1=O` here?
Its value is -18.8%.

For `CC(C)c1nc2c(c(=O)c3ccccc3n2C)c(=O)n1-c1ccc(F)cc1`, which “hERG current change (%, negative = inhibition) at 10uM” value is on record?
The value was -16.5%.

How did the “hERG current change (%, negative = inhibition) at 10uM” value turn out when `COc1ccc(C([O-])=Nc2ccc[n+](-c3nc4ccccc4nc3NS(=O)(=O)c3ccccc3)c2)cc1` was run?
Its value is -7.78%.

With `COc1ccc(CCn2c(C)cc(C(=O)CSc3nnc(N)s3)c2C)cc1` as the compound, how does the “hERG current change (%, negative = inhibition) at 10uM” value read?
The value was 6.03%.

How did the “hERG current change (%, negative = inhibition) at 10uM” value turn out when `O=C(CCc1ccccc1)Nc1ccnn1C1CCN(Cc2ccc(OCCO)cc2)CC1` was run?
The value was -65.3%.

How did the “hERG current change (%, negative = inhibition) at 10uM” value turn out when `Cc1ccc(C)c(NC(=S)N(C)CCc2ccccn2)c1` was run?
Its value is 9.73%.

With `O=C(Nc1ccc2ccccc2c1)/C(=C/c1cccc(Br)c1)NC(=O)c1ccco1` as the compound, how does the “hERG current change (%, negative = inhibition) at 10uM” value read?
Its value is -68.6%.

Which “hERG current change (%, negative = inhibition) at 10uM” value does the source give for `CC(=O)Nc1ccc(C(=O)OCC(=O)c2ccc(C)c([N+](=O)[O-])c2)cc1` here?
Its value is 5.24%.

`Cc1nc2cc(NC(=O)NCc3ccco3)ccc2o1` was tested. Which “hERG current change (%, negative = inhibition) at 10uM” value did it give?
Its value is 9.7%.

For `Cc1ccc(C)c(NC(=O)CN(C)C(=O)c2ccc(-c3ccc(Cl)cc3)o2)c1`, which “hERG current change (%, negative = inhibition) at 10uM” value is on record?
The value was 1.22%.

How did the “hERG current change (%, negative = inhibition) at 10uM” value turn out when `CCc1ccccc1Nc1ncnc2ccccc12.Cl` was run?
Its value is 6.03%.

How did the “hERG current change (%, negative = inhibition) at 10uM” value turn out when `CCN(CC)S(=O)(=O)c1cccc(NC(=O)Nc2cccc(C(F)(F)F)c2)c1` was run?
Its value is -13.3%.

How did the “hERG current change (%, negative = inhibition) at 10uM” value turn out when `COc1ccc(-n2c(COc3ccc(C)cc3)nnc2SCC(N)=O)cc1` was run?
Its value is -5.01%.

How did the “hERG current change (%, negative = inhibition) at 10uM” value turn out when `O=C(O)c1ccc(-n2nnnc2SCc2ccccc2Br)cc1` was run?
Its value is 8.43%.

Which “hERG current change (%, negative = inhibition) at 10uM” value does the source give for `CCOC(=O)C1CCCN(C(=O)c2cc(S(=O)(=O)N3CCCCC3)c[nH]2)C1` (stereo not shown) here?
Its value is 14.5%.

For `CCOc1cc(C(C(=O)NCC2CCCO2)N(C(=O)Cn2nnc3ccccc32)c2ccc(C(C)=O)cc2)ccc1O` (stereo not shown), which “hERG current change (%, negative = inhibition) at 10uM” value is on record?
Its value is 14.5%.

For `CCC(CC)C(=O)N1CCN(Cc2nc3ccccc3c(=O)[nH]2)CC1`, which “hERG current change (%, negative = inhibition) at 10uM” value is on record?
Its value is -11.3%.

`CC(CCc1ccccc1)NC(=O)c1ccc(NC(=O)c2ccccc2)cc1` (stereo not shown) was tested. Which “hERG current change (%, negative = inhibition) at 10uM” value did it give?
The value was 10.5%.

How did the “hERG current change (%, negative = inhibition) at 10uM” value turn out when `COc1cccc2c1OC[C@@H](CO)[C@H]2N(C)C(=O)Nc1ccc(Cl)cc1Cl` was run?
Its value is -48.1%.

Which “hERG current change (%, negative = inhibition) at 10uM” value does the source give for `O=C(NCc1ccccc1Cl)c1cc([N+](=O)[O-])ccc1Cl` here?
The value was 1.47%.

Which “hERG current change (%, negative = inhibition) at 10uM” value does the source give for `O=C(NCc1ccccc1Cl)c1ccc(-c2ccccc2)cc1` here?
Its value is 1.37%.

With `CCC(C)[C@H](NC(=O)N1c2ccccc2NC(=O)[C@@H]1C(C)C)C(=O)N[C@@H](Cc1ccccc1)C(=O)O` (stereo partly shown) as the compound, how does the “hERG current change (%, negative = inhibition) at 10uM” value read?
The value was 6.95%.

With `O=S(=O)(c1ccccc1)c1nnn2c1nc(NC1CCN(Cc3ccccc3)CC1)c1cc(Cl)ccc12` as the compound, how does the “hERG current change (%, negative = inhibition) at 10uM” value read?
The value was -19.1%.

Which “hERG current change (%, negative = inhibition) at 10uM” value does the source give for `Cc1cc(NN)nc(NS(=O)(=O)c2ccccc2)n1` here?
The value was 25.7%.

For `Cc1cccc(C)c1NC(=S)/N=C/N(C)C`, which “hERG current change (%, negative = inhibition) at 10uM” value is on record?
The value was 23.1%.

For `Cc1cc(C(=O)CN2CCN(CC(=O)Nc3cccc(F)c3)CC2)c(C)n1C1CC1`, which “hERG current change (%, negative = inhibition) at 10uM” value is on record?
The value was -56.2%.
